# The other results are listed elsewhere or left out. At the low end of the ranking the order means little.
# System: MYC (p64) + MAX (p21), in MYC:MAX
# Assay: protein-binding microarray (anti-MAX antibody)
# Conditions: PBM: 15 mM Tris-HCl pH 7.5, 100 mM KCl, 0.075% NP40, 7.5 mM beta-mercaptoethanol, 375 ng/ul BSA, 8 ng/ul poly(dA-dT):(dA-dT), 550 ng complex, 60 min, room …; high values mean tight binding; double strand, one strand shown; sequences stand for … in CCGGC…TTAATAGCTAAGATTACTATATCGACG
row,Sequence,binding signal (log2 normalized fluorescence)
1,TGAGAAACTGTA,-0.0537
2,TGATACGATGTA,0.0769
3,TGACTTGGCGTA,0.258
4,TGACAAATGGTG,0.43
5,TGAACGTGGGTA,0.615
6,TGACCTACTGTA,0.184
7,TGACTGATGGTA,0.272
8,TGAGCGCCCGTA,0.171
9,TGAGTGCCGGTA,0.167
10,TGATAGAAAGTA,-0.0501
11,TGAGATGTCGTA,0.0274
12,TGACTCGAGGAA,0.209
13,TGAGATGCGGTA,0.155
14,TGAAGCACGGTA,0.316
15,TGATTAAAGGTA,-0.106
16,TGATTTAAGGTA,-0.132
17,TGAGGACGTGTA,0.195
18,TGACACATGGCA,0.478
19,TGACGACACGTA,0.2
20,TGATCAATTGTA,0.00363
21,TGACCCGTGGCA,0.345
22,TGATCTGGAGTA,-0.15
23,TTACACGTGGGA,0.81

row,Sequence,binding signal (log2 normalized fluorescence)
1,TGACGTACAGTA,0.112
2,TGAATAGTGGTA,0.0384
3,TGACCATAAGTA,0.383
4,TGAGGCACTGTA,0.054
5,TGAAACCAGGTA,0.0832
6,TGATCCTTTGTA,-0.0551
7,TGACGGCGGGTA,-0.0424
8,TGATCCTAAGTA,-0.181
9,TGAAGCAATGTA,0.157
10,TGACTCGCCGTA,0.252
11,TGACACGTGCCA,1
12,TGAAAACTGGTA,-0.086
13,TAACACGCGGTC,0.739
14,TGACGAGAAGTA,0.0206
15,TGACACGGCGTC,0.151
16,TATCACGTGGTA,0.71
17,TGAGGAAAGGTA,0.0707
18,TGACGACAAGTA,0.0769
19,TCACCCGTGGTT,0.535
20,TGAAAAACCGTA,-0.00466
21,TGATCCGACGTA,-0.168
22,TGAATTTCAGTA,0.0268
23,TGATCGGTTGTA,-0.0422

row,Sequence,binding signal (log2 normalized fluorescence)
1,TGACTCAACGTA,0.24
2,TGATTACTGGTA,-0.0694
3,TGAACGACGGTA,0.0897
4,TGAAAAAACGTA,0.215
5,TGAATCAATGTA,0.252
6,TGACTCGTTGTA,0.324
7,ACTTACCTCCGG,0.212
8,TGACCCTTGTTA,-0.028
9,TGAATTGGGGTA,0.0325
10,TGAGAGCACGTA,0.466
11,TGATCAAACGTA,-0.00944
12,TGACATTGTGTA,0.454
13,TGAAGGCTTGTA,0.0378
14,TTTGACGTGGTA,0.393
15,TGACACGTCGGA,0.32
16,TGAGGGAGAGTA,-0.0403
17,TGAGAATTCGTA,-0.123
18,TGAGGCCTTGTA,0.083
19,TGAGAGTGTGTA,0.186
20,TGATTGTGAGTA,0.0653
21,TGAAAACCAGTA,0.033
22,TGAGATTACGTA,-0.066
23,TGAACCTGTGTA,0.332

row,Sequence,binding signal (log2 normalized fluorescence)
1,TGAAGGAACGTA,-0.0658
2,TGAATTGCCGTA,0.182
3,TGAAAGGTCGTA,0.0812
4,AGTAGGGTTGAC,0.18
5,TGACCTAGCGTA,0.148
6,TGACATGCGGAA,0.337
7,TGATGCCAGGTA,0.0211
8,TGAACTTCTGTA,0.115
9,TGAACATTAGTA,0.207
10,TGAGTACCGGTA,-0.165
11,TGATACGGTGTA,0.0498
12,TGATATCCCGTA,-0.0527
13,TGATGAACAGTA,-0.0341
14,TGATTTGTCGTA,-0.0969
15,TTACACCTGGGA,0.324
16,TGAGCCTCCGTA,-0.0648
17,TGACATGAAGTA,0.276
18,TGAGAACCAGTA,-0.0272
19,AGCCACGTGGTA,0.908
20,TGACGGGGCGTA,0.37
21,TGAAAGGCTGTA,0.0112
22,TGAATCGAAGTA,-0.0208
23,TGAATGAAAGTA,0.156

row,Sequence,binding signal (log2 normalized fluorescence)
1,TGCCACGTGGTG,0.763
2,TGAGGTCGCGTA,0.0221
3,TGACGTAAAGTA,0.132
4,TGAGTGGGTGTA,0.257
5,TGAGTGGTGGTA,0.28
6,TGACGGTGAGTA,0.154
7,TGATTGTCGGTA,-0.0618
8,TGAGGGTCGGTA,0.137
9,TGAATCGAGGTA,0.273
10,TGAGACCGCGTA,0.176
11,TGAGTGCGGGTA,0.213
12,TGGGCCGTGGTA,0.0925
13,TGAGACGAAGTA,0.0305
14,TGAACTCATGTA,0.469
15,TCAAAGGCCTTA,-0.0783
16,TGTCACGTGGCA,0.795
17,TATGACGTGGTA,0.398
18,TGACCGGGGGTA,0.631
19,TGAAGCAACGTA,0.212
20,TGACAGGTTGCA,0.264
21,TGACCGCCAGTA,0.192
22,TGAGATGATGTA,0.0753
23,AGACACATGGGA,0.468

row,Sequence,binding signal (log2 normalized fluorescence)
1,TGAGTGGAAGTA,-0.0931
2,TGACCAACGGTA,0.052
3,TGAGTCCTAGTA,-0.104
4,TGACGTATCGTA,0.11
5,TGACCCGTTGAA,0.151
6,TGATTAGAAGTA,-0.155
7,TGACACGCGTTA,0.755
8,TGAACGGGGGTA,0.584
9,CGAGACGTAGTT,-0.0298
10,TGACACGTTCGA,0.447
11,TGATAGGTAGTA,-0.0712
12,TGACTTCCCGTA,-0.0132
13,TGACGCTTGGTA,0.103
14,TGAGGTGAGGTA,0.213
15,TGACACGTTGTT,0.604
16,TGACTAGTGGTA,0.119
17,TGATAATCTGTA,-0.0215
18,TGATGAGTTGTA,0.12
19,TGACATGAGTTA,0.335
20,TGATGAACGGTA,0.0578
21,TGACAATCTGTA,0.125
22,TGAGATCCGGTA,0.012
23,TGAGGAGGCGTA,-0.0643

# — article PMC5515408
